Source: PubChem BioAssay AID504339 (National Center for Advancing Translational Sciences (NCATS), 2011)
The campaign covered roughly 390,000 compounds. About 17,000 (4.4%) were called active. Inconclusive results, whose numbers are uncertain, are shown with a selection of clear calls. Calls follow the shape of the dose curve; as a rule, active = well fitted inhibition curve with a large enough effect; inconclusive = small, poorly fitted or top-dose-only effect; inactive = no such curve, though single readings can be large or run the other way. Potencies beside an inconclusive call are fits to weak or partial responses and may not hold up.

The molecules below were run against Lysine-specific demethylase 4A (Homo sapiens) (UniProt O75164) (assay: qHTS Assay for Inhibitors of JMJD2A-Tudor Domain). Details: AlphaScreen JMJD2A-Tudor / H3K4me3 peptide binding; activity change, negative = inhibition: at 114 µM (top of the series).
% is scaled to controls: 0 for no effect and ±100 for the full control effect; potency is read from the fitted curve at half-maximal effect; tags tell the direction and shape of the fitted curve.
Also: nearly all actives have a fitted effect of over 50% in size.

Chain of UniProt O75164 (O75164 whole entry, looked up, the tested form may be a part): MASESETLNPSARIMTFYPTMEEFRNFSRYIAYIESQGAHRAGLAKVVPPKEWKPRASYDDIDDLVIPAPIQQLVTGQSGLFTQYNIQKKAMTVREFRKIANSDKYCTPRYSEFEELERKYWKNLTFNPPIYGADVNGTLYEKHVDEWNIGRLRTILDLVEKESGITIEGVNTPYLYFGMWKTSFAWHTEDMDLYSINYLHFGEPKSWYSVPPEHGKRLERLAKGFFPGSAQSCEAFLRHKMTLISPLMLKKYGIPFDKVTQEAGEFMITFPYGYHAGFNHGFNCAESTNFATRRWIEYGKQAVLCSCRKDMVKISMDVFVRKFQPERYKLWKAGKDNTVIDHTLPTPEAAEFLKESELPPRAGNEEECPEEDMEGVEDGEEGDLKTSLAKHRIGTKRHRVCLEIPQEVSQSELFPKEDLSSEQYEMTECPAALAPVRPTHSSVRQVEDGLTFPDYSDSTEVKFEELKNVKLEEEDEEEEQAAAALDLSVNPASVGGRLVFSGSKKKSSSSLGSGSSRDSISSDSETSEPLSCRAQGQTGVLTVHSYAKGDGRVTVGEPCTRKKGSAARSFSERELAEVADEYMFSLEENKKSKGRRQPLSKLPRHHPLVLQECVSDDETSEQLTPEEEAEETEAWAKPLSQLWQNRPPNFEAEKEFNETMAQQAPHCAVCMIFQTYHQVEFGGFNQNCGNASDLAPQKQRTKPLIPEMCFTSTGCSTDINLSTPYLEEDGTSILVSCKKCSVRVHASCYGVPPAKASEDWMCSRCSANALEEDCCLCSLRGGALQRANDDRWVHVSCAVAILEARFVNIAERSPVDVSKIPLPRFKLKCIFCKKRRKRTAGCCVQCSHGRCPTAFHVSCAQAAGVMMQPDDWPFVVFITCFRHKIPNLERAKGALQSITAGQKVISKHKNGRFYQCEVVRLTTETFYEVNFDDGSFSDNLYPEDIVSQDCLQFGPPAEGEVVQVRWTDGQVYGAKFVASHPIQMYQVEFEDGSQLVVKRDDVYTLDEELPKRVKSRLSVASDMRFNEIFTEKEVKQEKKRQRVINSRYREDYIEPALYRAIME

**Q.** For `CC(C)(C)c1ccc(NC(=O)c2ccccc2)c([N+](=O)[O-])c1`, which Potency is on record?
**A.** active: 50.1 µM

**Q.** `COc1ccc(C2Nc3ccccc3C(=O)N2C2CCCC2)cc1COc1ccc(NC(C)=O)cc1` (stereo unspecified) was tested. Which Potency did it give?
**A.** active: 50.1 µM

**Q.** How did the Potency turn out when `CCN(CC)c1ccc(NC(=O)COc2ccc(N(C)S(=O)(=O)c3cccs3)cc2)cc1` was run?
**A.** inconclusive: 11.2 µM [inhibitor, full curve]

**Q.** For `CCN(CCCNC(=O)COc1cc(=O)n(C)c2ccccc12)c1cccc(C)c1`, which Potency is on record?
**A.** inconclusive: 100 µM [inhibitor, single point]

**Q.** Which “activity change, negative = inhibition” value does the source give for `CC(=O)Nc1ccc(NC(=O)CSc2nnc3ccc(-c4ccccn4)nn23)cc1` here?
**A.** inactive: -16.7%

**Q.** Which Potency does the source give for `COc1cccc(NC(=O)C2CC(=O)n3cnnc3S2)c1` (stereo unspecified) here?
**A.** active: 17.8 µM

**Q.** How did the Potency turn out when `CC(=O)Nc1ccc(S(=O)(=O)Nc2ccc(-c3cn4c(C)csc4n3)cc2)cc1` was run?
**A.** inconclusive: 50.1 µM [inhibitor, partial curve]

**Q.** For `COc1ccc(-c2noc(CSc3nnc(Cc4ccccc4)n3-c3cccc(C)c3)n2)cc1OC`, which “activity change, negative = inhibition” value is on record?
**A.** inactive: -20.8%

**Q.** For `Cc1ccc(-c2nn(-c3ccccc3)cc2/C=C2\SC(=S)N(CC(=O)O)C2=O)cc1`, which Potency is on record?
**A.** active: 39.8 µM

**Q.** Which “activity change, negative = inhibition” value does the source give for `CCOc1ccc(S(=O)(=O)NCc2cccs2)cc1C(C)C` here?
**A.** inactive: 26.9%

**Q.** With `CCOCCCn1c(=O)c2ccccc2n2c(=S)[nH]nc12` as the molecule, how does the Potency read?
**A.** active: 3.98 µM

**Q.** Which Potency does the source give for `CO/N=C(\C(=O)O)c1csc(NN=C(C)C)n1` here?
**A.** active: 22.4 µM

**Q.** Which Potency does the source give for `CCCCn1c2ccccc2c2nnc(SCC(=O)Nc3ccc(NC(C)=O)cc3)nc21` here?
**A.** inconclusive: 79.4 µM [inhibitor, partial curve]

**Q.** For `O=C(COc1ccccc1[N+](=O)[O-])Nc1ccccc1N1CCCC1`, which Potency is on record?
**A.** inconclusive: 50.1 µM [inhibitor, partial curve]

**Q.** Which Potency does the source give for `Nc1cccc2cc(S(=O)(=O)O)ccc12` here?
**A.** active: 50.1 µM

**Q.** `COc1ccc(-n2c(SCC(=O)N3CCOCC3)nc3ccccc3c2=O)cc1` was tested. Which “activity change, negative = inhibition” value did it give?
**A.** inactive: -16.7%

**Q.** With `COc1cc2nc(N3CCN(C(=O)C4CCCO4)CC3)nc(N)c2cc1OC` (stereo unspecified) as the molecule, how does the Potency read?
**A.** inconclusive: 100 µM [inhibitor, single point]

**Q.** Which Potency does the source give for `Cc1cc(Br)c(OCc2ccc(C(=O)N/N=C/c3ccc[nH]3)cc2)c(Br)c1` here?
**A.** inconclusive: 22.4 µM [inhibitor, partial curve]

**Q.** How did the “activity change, negative = inhibition” value turn out when `CC(=O)OCC(NC(=O)C(Cc1ccccc1)NC(=O)OC(C)(C)C)C1OC(n2ccc(=O)[nH]c2=O)C(OC(C)=O)C1OC(C)=O` (stereo unspecified) was run?
**A.** inactive: 2.76%

**Q.** Which “activity change, negative = inhibition” value does the source give for `COc1ccc(C2=NN(c3nc(-c4ccc(CNC(C)=O)cc4)cs3)C(c3ccco3)C2)cc1` (stereo unspecified) here?
**A.** inactive: -22.8%

**Q.** How did the Potency turn out when `O=C(CCCN1C(=O)/C(=C/c2ccccc2Cl)SC1=S)NCCCN1CCOCC1` was run?
**A.** inconclusive: 56.2 µM [inhibitor, partial curve]
